Positions of bridges follow the written chain, without caps; N, C: chain ends.
Tests used:
[1] = test system: Primitive Erythroid bone marrow progenitor cells; assay: 3H-thymidine killing of primitive erythroid bone marrow progenitor cells; format: cell-based, human; details: Table 5, no drug 47 +/− 4
Primitive BFU-E = assay: 3H-thymidine suicide assay of primitive BFU-E in adherent layer of human LTC (Table 7); format: cell-based; details: 1 μg/ml, None: 48 +/− 4
Description: (§1) Primitive high proliferative potential colony forming cells (HHP-CFC) in an adherent layer in culture are usually in a quiescent state. This long term culture (LTC) is established seven to ten days after initiation of the LTC. The cells may be stimulated to proliferate by the addition of fresh medium. Both BFU-E (burst forming unit—erythroid precursor) cells and CFU-GM (colony forming unit—granulocyte-monocyte common precursor) cells of LTC may be maintained in a quiescent state by the mesenchymally derived stromal cells in an adherent layer, but can be reversibly stimulated into the cycle by the addition of fresh media. The ability of CXCR4 agonists such as SDF-1 and SDF-1 polypeptides to overcome this activation may be determined by adding it to the LTC during the medium change. Rapidly dividing cells will accumulate proportionally more of a cytotoxic agent, such as radioactive thymidine, and as a result are preferentially killed.
(§2) The results depicted in Table 7 illustrate the ability of SDF-1, and SDF-1(1-14)-(G)4-SDF-1(55-67)-Lys20/Glu24-cyclic amide (SEQ ID NO:809) and SDF-1(1-14)-(G)4-SDF-1(55-67) acid (SEQ ID NO:806) to repress the proliferation of clonogenic erythroid and granulopoitic progenitors (which differentiate into erythrocytes, platelets, monocytes/macrophages and neutrophils) in an in vitro LTC-IC (long-term culture-initiating cells) assay. […]

Primitive CFU-GM = assay: 3H-thymidine suicide assay of primitive CFU-GM in adherent layer of human LTC (Table 7); format: cell-based; details: 1 μg/ml, None: 44 +/− 3
Description: as §1, §2

plasma half life = details: in vivo

## H2N-Lys-Pro-Val-Ser-Leu-Ser-Tyr-Arg-Cys-Pro-Cys-Arg-Phe-Phe-[Gly-Gly-Gly-Gly]-Leu-Lys-Trp-Ile-Gln-Glu-Tyr-Leu-Glu-Lys-Ala-Leu-Asn-NH2 (H-KPVSLSYRCPCRFFGGGGLKWIQEYLEKALN-NH2; lactam 20-24; cysteine pairing not given here) [Compound A]
[1]
  % CELL KILLED: 5 +/− 3%
Primitive BFU-E
  % CELL KILLED after 3H-Thymidine: 2 +/− 4%
Primitive CFU-GM
  % CELL KILLED after 3H-Thymidine: 0 +/− 3%
Plasma half life
  plasma half life: not more than 2 hours

Source: patent publication US20050059584A1, “Novel chemokine mimetics synthesis and their use” (priority 2002, published 2005)
